Experimental data: paper PMC12820563, “FoxP3 forms a head-to-head dimer in vivo and stabilizes its multimerization on adjacent microsatellites”
The other results are listed elsewhere or left out.

The sequences below were run against T1, MBP-FoxP1dN (Mus musculus, UniProt P58462 326-579) (assay: PD-seq (MBP pull-down with sequencing); 20 mM Tris-HCl pH 7.5, 100 mM NaCl, 1.5 mM MgCl2, 0.4 uM protein, 0.1 uM dsDNA library, 30 min, room temperature, amylose pull-down; high values mean tight binding). Conditions: protein: recombinant; tags: His6-MBP; chain copies: 2; dsDNA, one strand shown.
T1 sequence: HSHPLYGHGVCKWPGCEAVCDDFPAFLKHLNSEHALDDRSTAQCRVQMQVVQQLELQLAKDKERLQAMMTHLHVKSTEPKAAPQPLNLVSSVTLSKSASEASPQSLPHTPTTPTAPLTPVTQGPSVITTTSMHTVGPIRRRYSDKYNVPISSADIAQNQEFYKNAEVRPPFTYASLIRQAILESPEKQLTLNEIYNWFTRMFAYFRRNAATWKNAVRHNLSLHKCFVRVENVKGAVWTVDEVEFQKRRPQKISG
Outline: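 Binding is the reads-per-million enrichment of pull-down relative to input, pooled across replicates. For this, 0.4 µM His6-MBP-tagged mouse FoxP3 or FoxP1 fragment lacking the N-terminus, made in E. coli, was incubated with 0.1 µM Klenow-filled double-stranded degenerate DNA library for 30 min at room temperature in Tris pH 7.5 buffer with NaCl and MgCl2. Complexes bound to amylose resin were washed three times before proteinase K released the DNA for PCR barcoding and Illumina sequencing.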

Sequence | binding signal
GATGATTGTTCTCCCAGCTGATGAATTGTATGTATCGAGTAAACAAATTTTCCTAATCTTTCTGTTCAAGCGCCATCTAC | 1.67 RPM ratio (pull-down/input)
GATGATTGTTCTCCCAGCTGATGAATTCTGCGTTTCGAGTAAACAAATTTTCCTAATCTTTCTGTTCAAGCGCCATCTAC | 0.874 RPM ratio (pull-down/input)
GATGATTGTTCTCCCAGCTGATGAATTTCCAGTATCGAGTAAACAAATTTTCCTAATCTTTCTGTTCAAGCGCCATCTAC | 0.868 RPM ratio (pull-down/input)
GATGATTGTTCTCCCAGCTGATGAATTCAGTGGGTCGAGTAAACAAATTTTCCTAATCTTTCTGTTCAAGCGCCATCTAC | 0.815 RPM ratio (pull-down/input)
GATGATTGTTCTCCCAGCTGATGAATTCGGCGCATCGAGTAAACAAATTTTCCTAATCTTTCTGTTCAAGCGCCATCTAC | 1.1 RPM ratio (pull-down/input)
GATGATTGTTCTCCCAGCTGATGAATTTTAATGTTCGAGTAAACAAATTTTCCTAATCTTTCTGTTCAAGCGCCATCTAC | 1.24 RPM ratio (pull-down/input)
GATGATTGTTCTCCCAGCTGATGAATTGGTTCCGTCGAGTAAACAAATTTTCCTAATCTTTCTGTTCAAGCGCCATCTAC | 0.961 RPM ratio (pull-down/input)
GATGATTGTTCTCCCAGCTGATGAATTCTTAAAGTCGAGTAAACAAATTTTCCTAATCTTTCTGTTCAAGCGCCATCTAC | 0.907 RPM ratio (pull-down/input)
GATGATTGTTCTCCCAGCTGATGAATTACCAGGGTCGAGTAAACAAATTTTCCTAATCTTTCTGTTCAAGCGCCATCTAC | 0.877 RPM ratio (pull-down/input)
GATGATTGTTCTCCCAGCTGATGAATTCAATGTCTCGAGTAAACAAATTTTCCTAATCTTTCTGTTCAAGCGCCATCTAC | 0.812 RPM ratio (pull-down/input)
GATGATTGTTCTCCCAGCTGATGAATTCGCTGTTTCGAGTAAACAAATTTTCCTAATCTTTCTGTTCAAGCGCCATCTAC | 1.03 RPM ratio (pull-down/input)
GATGATTGTTCTCCCAGCTGATGAATTTATGAAATCGAGTAAACAAATTTTCCTAATCTTTCTGTTCAAGCGCCATCTAC | 1.18 RPM ratio (pull-down/input)
GATGATTGTTCTCCCAGCTGATGAATTATCATGGTCGAGTAAACAAATTTTCCTAATCTTTCTGTTCAAGCGCCATCTAC | 1.02 RPM ratio (pull-down/input)
GATGATTGTTCTCCCAGCTGATGAATTCCCAAAGTCGAGTAAACAAATTTTCCTAATCTTTCTGTTCAAGCGCCATCTAC | 0.748 RPM ratio (pull-down/input)
GATGATTGTTCTCCCAGCTGATGAATTCAGATCGTCGAGTAAACAAATTTTCCTAATCTTTCTGTTCAAGCGCCATCTAC | 0.799 RPM ratio (pull-down/input)
GATGATTGTTCTCCCAGCTGATGAATTATCCCCGTCGAGTAAACAAATTTTCCTAATCTTTCTGTTCAAGCGCCATCTAC | 1 RPM ratio (pull-down/input)
GATGATTGTTCTCCCAGCTGATGAATTTAATGTATCGAGTAAACAAATTTTCCTAATCTTTCTGTTCAAGCGCCATCTAC | 1.18 RPM ratio (pull-down/input)
GATGATTGTTCTCCCAGCTGATGAATTTTTGCCCTCGAGTAAACAAATTTTCCTAATCTTTCTGTTCAAGCGCCATCTAC | 0.853 RPM ratio (pull-down/input)
GATGATTGTTCTCCCAGCTGATGAATTCCTGTCATCGAGTAAACAAATTTTCCTAATCTTTCTGTTCAAGCGCCATCTAC | 1.07 RPM ratio (pull-down/input)
GATGATTGTTCTCCCAGCTGATGAATTGGCGCTATCGAGTAAACAAATTTTCCTAATCTTTCTGTTCAAGCGCCATCTAC | 0.954 RPM ratio (pull-down/input)
GATGATTGTTCTCCCAGCTGATGAATTTCCACAGTCGAGTAAACAAATTTTCCTAATCTTTCTGTTCAAGCGCCATCTAC | 0.896 RPM ratio (pull-down/input)

Sequence | binding signal
GATGATTGTTCTCCCAGCTGATGAATTCCAAGGTTCGAGTAAACAAATTTTCCTAATCTTTCTGTTCAAGCGCCATCTAC | 0.837 RPM ratio (pull-down/input)
GATGATTGTTCTCCCAGCTGATGAATTCAGCCGTTCGAGTAAACAAATTTTCCTAATCTTTCTGTTCAAGCGCCATCTAC | 0.748 RPM ratio (pull-down/input)
GATGATTGTTCTCCCAGCTGATGAATTTGATCATTCGAGTAAACAAATTTTCCTAATCTTTCTGTTCAAGCGCCATCTAC | 0.921 RPM ratio (pull-down/input)
GATGATTGTTCTCCCAGCTGATGAATTCCTTATATCGAGTAAACAAATTTTCCTAATCTTTCTGTTCAAGCGCCATCTAC | 0.93 RPM ratio (pull-down/input)
GATGATTGTTCTCCCAGCTGATGAATTTATTAGTTCGAGTAAACAAATTTTCCTAATCTTTCTGTTCAAGCGCCATCTAC | 1.35 RPM ratio (pull-down/input)
GATGATTGTTCTCCCAGCTGATGAATTCAGAATGTCGAGTAAACAAATTTTCCTAATCTTTCTGTTCAAGCGCCATCTAC | 0.823 RPM ratio (pull-down/input)
GATGATTGTTCTCCCAGCTGATGAATTGCGGCACTCGAGTAAACAAATTTTCCTAATCTTTCTGTTCAAGCGCCATCTAC | 1.07 RPM ratio (pull-down/input)
GATGATTGTTCTCCCAGCTGATGAATTCCGTGGATCGAGTAAACAAATTTTCCTAATCTTTCTGTTCAAGCGCCATCTAC | 0.822 RPM ratio (pull-down/input)
GATGATTGTTCTCCCAGCTGATGAATTATTGGGCTCGAGTAAACAAATTTTCCTAATCTTTCTGTTCAAGCGCCATCTAC | 0.985 RPM ratio (pull-down/input)
GATGATTGTTCTCCCAGCTGATGAATTCGTTATATCGAGTAAACAAATTTTCCTAATCTTTCTGTTCAAGCGCCATCTAC | 0.975 RPM ratio (pull-down/input)
GATGATTGTTCTCCCAGCTGATGAATTGAAGGGGTCGAGTAAACAAATTTTCCTAATCTTTCTGTTCAAGCGCCATCTAC | 0.749 RPM ratio (pull-down/input)
GATGATTGTTCTCCCAGCTGATGAATTAACAGGTTCGAGTAAACAAATTTTCCTAATCTTTCTGTTCAAGCGCCATCTAC | 0.995 RPM ratio (pull-down/input)
GATGATTGTTCTCCCAGCTGATGAATTGGGGTGTTCGAGTAAACAAATTTTCCTAATCTTTCTGTTCAAGCGCCATCTAC | 0.867 RPM ratio (pull-down/input)
GATGATTGTTCTCCCAGCTGATGAATTTGGTAGATCGAGTAAACAAATTTTCCTAATCTTTCTGTTCAAGCGCCATCTAC | 0.856 RPM ratio (pull-down/input)
GATGATTGTTCTCCCAGCTGATGAATTTGCAGCATCGAGTAAACAAATTTTCCTAATCTTTCTGTTCAAGCGCCATCTAC | 1.09 RPM ratio (pull-down/input)
GATGATTGTTCTCCCAGCTGATGAATTGAGCGTCTCGAGTAAACAAATTTTCCTAATCTTTCTGTTCAAGCGCCATCTAC | 0.887 RPM ratio (pull-down/input)
GATGATTGTTCTCCCAGCTGATGAATTCCGATTATCGAGTAAACAAATTTTCCTAATCTTTCTGTTCAAGCGCCATCTAC | 0.972 RPM ratio (pull-down/input)
GATGATTGTTCTCCCAGCTGATGAATTCTCTCAGTCGAGTAAACAAATTTTCCTAATCTTTCTGTTCAAGCGCCATCTAC | 0.803 RPM ratio (pull-down/input)
GATGATTGTTCTCCCAGCTGATGAATTTTTCAAATCGAGTAAACAAATTTTCCTAATCTTTCTGTTCAAGCGCCATCTAC | 1.16 RPM ratio (pull-down/input)
GATGATTGTTCTCCCAGCTGATGAATTAGGCAGATCGAGTAAACAAATTTTCCTAATCTTTCTGTTCAAGCGCCATCTAC | 0.901 RPM ratio (pull-down/input)
GATGATTGTTCTCCCAGCTGATGAATTTCGACCATCGAGTAAACAAATTTTCCTAATCTTTCTGTTCAAGCGCCATCTAC | 0.827 RPM ratio (pull-down/input)

Sequence | binding signal
GATGATTGTTCTCCCAGCTGATGAATTGCACAGTTCGAGTAAACAAATTTTCCTAATCTTTCTGTTCAAGCGCCATCTAC | 1.17 RPM ratio (pull-down/input)
GATGATTGTTCTCCCAGCTGATGAATTCGCTTACTCGAGTAAACAAATTTTCCTAATCTTTCTGTTCAAGCGCCATCTAC | 0.979 RPM ratio (pull-down/input)
GATGATTGTTCTCCCAGCTGATGAATTGAGATGATCGAGTAAACAAATTTTCCTAATCTTTCTGTTCAAGCGCCATCTAC | 0.903 RPM ratio (pull-down/input)
GATGATTGTTCTCCCAGCTGATGAATTACAAGGCTCGAGTAAACAAATTTTCCTAATCTTTCTGTTCAAGCGCCATCTAC | 1.08 RPM ratio (pull-down/input)
GATGATTGTTCTCCCAGCTGATGAATTGCAAGCCTCGAGTAAACAAATTTTCCTAATCTTTCTGTTCAAGCGCCATCTAC | 0.99 RPM ratio (pull-down/input)
GATGATTGTTCTCCCAGCTGATGAATTCTAACCTTCGAGTAAACAAATTTTCCTAATCTTTCTGTTCAAGCGCCATCTAC | 0.9 RPM ratio (pull-down/input)
GATGATTGTTCTCCCAGCTGATGAATTACATTGTTCGAGTAAACAAATTTTCCTAATCTTTCTGTTCAAGCGCCATCTAC | 1.31 RPM ratio (pull-down/input)
GATGATTGTTCTCCCAGCTGATGAATTTTACGACTCGAGTAAACAAATTTTCCTAATCTTTCTGTTCAAGCGCCATCTAC | 0.85 RPM ratio (pull-down/input)
GATGATTGTTCTCCCAGCTGATGAATTAAGTATTTCGAGTAAACAAATTTTCCTAATCTTTCTGTTCAAGCGCCATCTAC | 1.07 RPM ratio (pull-down/input)
GATGATTGTTCTCCCAGCTGATGAATTCAGCTTATCGAGTAAACAAATTTTCCTAATCTTTCTGTTCAAGCGCCATCTAC | 0.982 RPM ratio (pull-down/input)
GATGATTGTTCTCCCAGCTGATGAATTAATGTGCTCGAGTAAACAAATTTTCCTAATCTTTCTGTTCAAGCGCCATCTAC | 0.997 RPM ratio (pull-down/input)
GATGATTGTTCTCCCAGCTGATGAATTGTGTTCCTCGAGTAAACAAATTTTCCTAATCTTTCTGTTCAAGCGCCATCTAC | 1.4 RPM ratio (pull-down/input)
GATGATTGTTCTCCCAGCTGATGAATTGGCTAAGTCGAGTAAACAAATTTTCCTAATCTTTCTGTTCAAGCGCCATCTAC | 0.879 RPM ratio (pull-down/input)
GATGATTGTTCTCCCAGCTGATGAATTAAGTTAATCGAGTAAACAAATTTTCCTAATCTTTCTGTTCAAGCGCCATCTAC | 1.08 RPM ratio (pull-down/input)
GATGATTGTTCTCCCAGCTGATGAATTCGTACTTTCGAGTAAACAAATTTTCCTAATCTTTCTGTTCAAGCGCCATCTAC | 0.933 RPM ratio (pull-down/input)
GATGATTGTTCTCCCAGCTGATGAATTGGTCGGATCGAGTAAACAAATTTTCCTAATCTTTCTGTTCAAGCGCCATCTAC | 0.882 RPM ratio (pull-down/input)
GATGATTGTTCTCCCAGCTGATGAATTACCGTGCTCGAGTAAACAAATTTTCCTAATCTTTCTGTTCAAGCGCCATCTAC | 0.964 RPM ratio (pull-down/input)
GATGATTGTTCTCCCAGCTGATGAATTGCTTTCTTCGAGTAAACAAATTTTCCTAATCTTTCTGTTCAAGCGCCATCTAC | 1.26 RPM ratio (pull-down/input)
GATGATTGTTCTCCCAGCTGATGAATTCTAAGCATCGAGTAAACAAATTTTCCTAATCTTTCTGTTCAAGCGCCATCTAC | 1.05 RPM ratio (pull-down/input)
GATGATTGTTCTCCCAGCTGATGAATTGGTCGACTCGAGTAAACAAATTTTCCTAATCTTTCTGTTCAAGCGCCATCTAC | 0.893 RPM ratio (pull-down/input)
GATGATTGTTCTCCCAGCTGATGAATTTACTTCATCGAGTAAACAAATTTTCCTAATCTTTCTGTTCAAGCGCCATCTAC | 1.51 RPM ratio (pull-down/input)
